The values below come from PubChem BioAssay AID463173 (ICCB-Longwood Screening Facility, Harvard Medical School, 2010).

Screen size: about 52,000 compounds; about 4,300 (8.3%) were called active. Cut-off read from the data, not from the text of the source: active = survival mostly below about 52% (no sharp cut-off); inactive = mostly above about 56%. The list shows a part of the results.

In the assay the test system is DeltatarO mutant. The assay is described as follows: growth inhibition of S. aureus wild type versus tarO mutant, primary screen, teichoic acid synthesis inhibitors, RN4220, OD600 (AID 463173). The conditions noted are these: OD600, 18 h, hits give low values; concentration not given here unless noted.
Turning to `Cc1ccc(Cl)cc1NC(=O)N(Cc1ccc2c(c1)OCO2)C1CCN(Cc2ccccc2)CC1`, the survival was inactive: 55%.

In the case of `Cc1ccc(NC(=O)c2cccn(Cc3ccccc3C)c2=O)c(C)c1`, the survival is inactive: 89%.

Consider `O=C(CN1CCC(N2CCCCC2)CC1)N1CCC2(CC1)OCCO2`, for which the survival was inactive: 92%.

Turning to `CSc1nnc(CCN)n1C`, the survival was inactive: 109%.

Consider `CC(C)c1nn2c(=O)cc(COC(=O)Cc3ccccc3)nc2s1`, for which the survival was inactive: 80%.

As to `CN1C(=O)C(C(=O)O)C2CC1Oc1ccccc12` (stereo not drawn), the survival was inactive: 110%.

Regarding `O=C1CN=C(c2ccccc2Cl)c2cc(Cl)ccc2N1Cc1cccc(Cl)c1`, the survival is inactive: 117%.

As for `COc1cccc(-n2c(/C=C/c3ccccc3O)nc3ccccc3c2=O)c1`, the survival is active: 4%.

As for `Nc1c(C(=O)Nc2ccc(Cl)c(C(F)(F)F)c2)sc2nc3c(cc12)N1CCC3CC1`, the survival was active: 4%.

For the compound `COc1ccc(-n2c(/C=C\c3ccccc3F)nc3ccccc3c2=O)cc1OC`, the survival is inactive: 89%.

For `Cc1ccccc1-n1nc(C)c2c1NC(=O)CSC2c1ccc(N(C)C)cc1` (stereo not drawn), the survival was active: 43%.

For the compound `CCCCCc1nc2ccccc2c(=O)n1-c1ccc(C)cc1`, the survival is inactive: 52%.

As for `COC(=O)C1=C(N)Oc2cc(C)oc(=O)c2C12C(=O)Nc1ccccc12` (stereo not drawn), the survival is inactive: 96%.

With `Cc1ccc(CN2C(=O)c3ccccc3Sc3ccc(C(=O)N4CCC5(CC4)OCCO5)cc32)cc1`, the survival was inactive: 101%.

As for `CC(C)(C)C(=O)c1cn(CC(=O)NCc2ccco2)c2ccccc12`, the survival is inactive: 93%.

For `N#CC(C#N)=Cc1sc2ccccc2c1Cl`, the survival is inactive: 93%.

With `CC1(C)CC(=O)C(C2(O)C(=O)NC(=O)NC2=O)=C(O)C1`, the survival was inactive: 70%.

For `Cc1ccccc1Cn1cccc(C(=O)Nc2nc3ccccc3s2)c1=O`, the survival is inactive: 102%.

Turning to `CCCCc1nn2c(=O)cc(COC(=O)Cc3ccccc3)nc2s1`, the survival was inactive: 75%.

Regarding `C=Cc1ccc(Cn2c(C)c(CNCCc3cc(OC)ccc3OC)c(C(=O)O)c2C)cc1`, the survival is inactive: 58%.

For the compound `O=C1CSC2N1CCNC21CCCCC1` (stereo not drawn), the survival is inactive: 95%.

Take `CN1CCCC(C(=O)c2ccccc2)C1` (stereo not drawn): the survival was inactive: 99%.

With `Cc1cc(C=C(C#N)C#N)c(C)n1C1CCCC1`, the survival is inactive: 64%.

As for `O=C(Nc1cc(C(F)(F)F)cc(C(F)(F)F)c1)c1cccn(Cc2ccccc2Cl)c1=O`, the survival is inactive: 73%.

With `COc1cc(NC(=O)CN2C3CCC2CC(O)(c2cccnc2)C3)cc(OC)c1` (stereo not drawn), the survival was inactive: 102%.

For `CC(C)(C)c1ccc(C(=O)Nc2ccc(Cl)cc2C(=O)c2ccccc2)cc1`, the survival was active: 6%.

Turning to `c1cc2c(cc1N1CCNCC1)OCCO2`, the survival was inactive: 90%.

In the case of `O=C(COc1ccc(Cl)cc1)Nc1ccc(Cl)cc1C(=O)c1ccccc1`, the survival was inactive: 83%.

With `Cc1c(C(c2ccc(F)cc2)c2c(O)c3ccccc3oc2=O)c(=O)n(-c2ccccc2)n1C` (stereo not drawn), the survival was inactive: 89%.

`O=C1CC(c2c(F)cccc2Cl)c2c(c3ccccc3oc2=O)O1` (stereo not drawn): the survival was inactive: 68%.

For the compound `CC(=O)N1CC(=O)Nc2ccc(F)cc2C1c1ccccc1` (stereo not drawn), the survival was inactive: 81%.

For the compound `CCC12CN3CC(CC)(CN(C1)C3c1ccccn1)C2=O` (stereo not drawn), the survival was inactive: 75%.

As for `CN=Cc1c(O)[nH]c(=O)[nH]c1=O`, the survival was inactive: 85%.

Regarding `CCCSc1nc2ccccc2c(=O)n1-c1ccccc1OC`, the survival was active: -2%.

With `Cc1cc(C)cc(-n2c(=O)[nH]c3ccccc3c2=O)c1`, the survival was inactive: 65%.

Consider `CC1=NN(c2ccccc2)C(=O)/C1=C\c1c(O)[nH]c(=O)[nH]c1=O`, for which the survival was inactive: 69%.

In the case of `COCc1c(CN)cnc(C)c1N`, the survival is inactive: 75%.

Take `CCCc1nc2ccccc2c(=O)n1-c1ccccc1`: the survival is inactive: 88%.

Regarding `O=C(Nc1ccon1)c1cccn(Cc2cccc(Cl)c2)c1=O`, the survival was inactive: 93%.

Turning to `O=c1[nH]c2ccccc2c(=O)n1-c1ccc(Cl)c(Cl)c1`, the survival is inactive: 80%.

On to `Cc1cccc(NC(=O)Cn2cc(C(=O)c3ccccc3)c3ccccc32)c1C`, for which the survival is inactive: 61%.

In the case of `Cc1oc(-c2ccc(Cl)cc2)nc1CN1C(=O)CN=C(c2ccccc2)c2ccccc21`, the survival is inactive: 49%.

Turning to `O=c1cccc2n1CC1CC2CN(c2nc(N3CCCCC3)nc(N3CCCCC3)n2)C1` (stereo not drawn), the survival was inactive: 79%.

In the case of `Cc1ccc(NC(=O)N(Cc2ccc3c(c2)OCO3)C2CCN(Cc3ccccc3)CC2)cc1F`, the survival is inactive: 87%.

In the case of `COC(=O)CC1=C(C(=O)OC)C2(C(=O)Nc3ccc(F)cc32)C(C#N)=C(N)O1` (stereo not drawn), the survival was inactive: 65%.

For `CN(C)C(=O)Oc1cccc2cccnc12`, the survival was inactive: 76%.

On to `Cc1cc(C)cc(-n2c(/C=C/c3cccc(F)c3)nc3ccccc3c2=O)c1`, for which the survival is inactive: 83%.

As for `COc1ccc(NC(=O)CN2C(=O)C(C)N=C(c3ccccc3F)c3cc(Cl)ccc32)c(OC)c1` (stereo not drawn), the survival is inactive: 89%.

For the compound `Cc1nnc(NC(=O)c2cccn(Cc3ccc(Cl)cc3)c2=O)s1`, the survival is inactive: 70%.

In the case of `O=S1(=O)CC2(N3CCOCC3)CCCCC21` (stereo not drawn), the survival was inactive: 84%.

Turning to `CC(=O)N(C1=NCCCS1)c1ccccc1F`, the survival was inactive: 104%.

Consider `Cc1ccc(-n2c(/C=C/c3ccc(Br)s3)nc3ccccc3c2=O)cc1C`, for which the survival is inactive: 90%.

Take `COc1ccc(OC)c(NC(=O)Cn2cc(C(=O)c3ccccc3F)c3ccccc32)c1`: the survival is active: 70%.

Consider `CC(c1ccccc1F)n1cc(C(=O)Nc2ccc3nc[nH]c3c2)nn1` (stereo not drawn), for which the survival was inactive: 81%.

Regarding `COC(=O)Cn1cc(C=C2C(=O)N(C)C(=O)N(C)C2=O)c2ccccc21`, the survival is inactive: 83%.

Regarding `O=c1c2ccccc2nc(/C=C/c2cccc3ccccc23)n1-c1ccccc1Cl`, the survival is inactive: 101%.

`COc1ccc(Cl)cc1NC(=O)CN1C(=O)CN=C(c2ccccc2)c2cc(Cl)ccc21`: the survival is inactive: 71%.

`O=C1CC(=O)N(C2CCCCC2)C(=O)N1`: the survival was inactive: 77%.

Take `Cc1ccc(-n2c(/C=C/c3ccc(Br)s3)nc3ccccc3c2=O)cc1`: the survival is inactive: 85%.

On to `O=C1NC(=O)N(Cc2ccco2)C(=O)/C1=C\c1ccco1`, for which the survival is inactive: 98%.

For the compound `Cc1cccc(-n2c(/C=C/c3ccccc3O)nc3ccccc3c2=O)c1`, the survival is active: 0%.

Turning to `CCc1ccc(NC(=O)c2cccn(Cc3cccc([N+](=O)[O-])c3)c2=O)cc1`, the survival is inactive: 89%.

As to `CNC(=O)Oc1c(Cl)cc(Cl)cc1Cl`, the survival was inactive: 96%.

Regarding `CCOc1ccc(N(C(C)=O)C2=NCCCS2)cc1`, the survival was inactive: 101%.

On to `Cc1c(C(c2ccc(Cl)cc2Cl)c2c(O)c3ccccc3oc2=O)c(=O)n(-c2ccccc2)n1C` (stereo not drawn), for which the survival was inactive: 55%.

As for `CCCCc1ccc(NC(=O)c2cccn(Cc3ccc(Cl)cc3)c2=O)cc1`, the survival is inactive: 87%.

For the compound `Cc1ccc(OCC(=O)N2CCN(CCc3ccncc3)CC2)cc1C`, the survival is inactive: 53%.

For `Cc1ccccc1CN1C(=O)CN=C(c2ccccc2)c2cc(Cl)ccc21`, the survival was inactive: 91%.

Turning to `COc1ccc(C(=O)Nc2ccc(Cl)cc2C(=O)c2ccccc2)c(OC)c1`, the survival is active: 2%.

For the compound `COc1ccc(Br)cc1CN1CCN(C(=O)Cc2ccccc2)CC1`, the survival is inactive: 73%.

Take `CCOc1cccc(C(O)CNC)c1` (stereo not drawn): the survival was inactive: 51%.

As to `CC1CCC(NCCc2ccc3c(c2)OCO3)CC1` (stereo not drawn), the survival was inactive: 101%.

Turning to `Cc1cc(-n2c(/C=C/c3ccc(Br)s3)nc3ccccc3c2=O)ccc1Br`, the survival was inactive: 95%.

On to `O=C(Nc1ccon1)c1cccn(Cc2ccccc2)c1=O`, for which the survival was inactive: 80%.

Turning to `Nc1ccc(NC2=NCCCS2)cc1`, the survival is inactive: 99%.

Consider `Cc1cccc(-n2c(/C=C/c3cn(C)c4ccccc34)nc3ccccc3c2=O)c1`, for which the survival is active: 21%.

With `Cn1c(=O)c2ncnnc2n(C)c1=O`, the survival is inactive: 62%.

In the case of `Cc1ccc(-c2nc(CN3C(=O)CN=C(c4ccccc4)c4cc(Cl)ccc43)c(C)o2)cc1`, the survival was inactive: 67%.

For the compound `Cc1cc(NC(=O)c2cccn(Cc3cccc(Cl)c3)c2=O)no1`, the survival was inactive: 87%.

For the compound `O=C(COc1cccc(Cl)c1)N1CCN(CCc2ccncc2)CC1`, the survival was active: 47%.

In the case of `Cc1ccc(Cn2cccc(C(=O)Nc3cc([N+](=O)[O-])ccc3C)c2=O)cc1`, the survival is inactive: 82%.

On to `O=C(CCc1nc(C2=CCN(Cc3cccc(Cl)c3)CC2)no1)Nc1ccccc1F`, for which the survival was inactive: 81%.

For the compound `CN1CCc2cc3c(c4c2C1Cc1ccccc1-4)OCO3` (stereo not drawn), the survival is active: 12%.

On to `O=c1c2ccccc2nc(/C=C\c2ccc(F)cc2)n1-c1ccccc1F`, for which the survival was inactive: 94%.

Take `COc1ccc(OCC(=O)N2CCN(Cc3cc(=O)n4nc(-c5ccccc5C)sc4n3)CC2)cc1`: the survival is inactive: 129%.

Consider `CC(=O)NS(=O)(=O)c1ccc(NC(=O)c2cccn(Cc3ccc(Cl)cc3)c2=O)cc1`, for which the survival is inactive: 79%.

With `Cc1cc(C)cc(NC(=O)CN2C(=O)CN=C(c3ccccc3)c3cc(Cl)ccc32)c1`, the survival was inactive: 87%.

For `O=C(COc1ccc(Br)cc1)Nc1ccc(Cl)cc1C(=O)c1ccccc1`, the survival was inactive: 83%.

Regarding `Cc1ccnc(NS(=O)(=O)c2ccc(N=Cc3c(O)n(C)c(=O)n(C)c3=O)cc2)n1`, the survival is inactive: 93%.

Take `COc1ccc(C(C(=O)NC2CCCCC2)N(CCN2CCOCC2)C(=O)Cc2c[nH]c3ccccc23)cc1OC` (stereo not drawn): the survival was inactive: 59%.

As to `Cc1ccc(OCC(=O)N2CCN(Cc3ccc(F)cc3)CC2)cc1`, the survival was inactive: 156%.

Regarding `Cc1ccc(C(C)(C)C)c(OCC(=O)Nc2ccc(Cl)cc2C(=O)c2ccccc2)c1`, the survival is inactive: 66%.

For `c1cnc2c(c1)ncn2C1CCNCC1`, the survival is inactive: 75%.

As for `COc1ccc(CCNC2CCCCC2)cc1OC`, the survival is inactive: 91%.

On to `COc1cccc(-n2c(/C=C\c3ccc(Cl)cc3)nc3ccccc3c2=O)c1`, for which the survival was active: 30%.

Consider `Cc1cccc(OCC(=O)N2CCN(Cc3cc(=O)n4nc(-c5ccccc5Cl)sc4n3)CC2)c1`, for which the survival is inactive: 69%.

In the case of `CCC(N)C(=O)c1ccc(Cl)cc1` (stereo not drawn), the survival is inactive: 79%.

Take `Cc1ccccc1-c1nn2c(=O)cc(CN3CCN(C(=O)COc4ccccc4Cl)CC3)nc2s1`: the survival was inactive: 125%.
